According to PubChem BioAssay AID1745845 (National Center for Advancing Translational Sciences (NCATS), 2022):
Screen size: about 360,000 compounds; about 2,600 (0.72%) were called active. The shares of active, inactive and inconclusive entries below differ from those in the screen. The call rests on the fitted dose curve; in most records, active means well fitted inhibition curve with a large enough effect; inconclusive means small, poorly fitted or top-dose-only effect; inactive means no such curve, though single readings can be large or run the other way. Potencies of inconclusive entries are doubtful fits and often do not repeat.

Assay: Primary qHTS for Inhibitors of ATXN expression; further: nearly all actives have a fitted effect of over 55% in size
Conditions: HEK-293 ATXN2-luciferase reporter, luminescence, 24 h; activity change, negative = inhibition: at 57 µM (top of the series)
Procedure, shortened: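 ATXN2-luciferase reporter cells (luciferase flanked by upstream and downstream ATXN2 gene portions) were treated 24 h at 37 °C with compounds at up to 57 uM. SteadyGlo luminescence gave expression; GF-AFC fluorescence gave viability.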
On the % scale 0 is the no-effect control and ±100 the full control effect; potency means the concentration at half of the fitted maximal effect; tags describe the fitted curve by direction and shape.

Potency, inconclusive:
O=C(Nc1ccccc1)OC1CCC2CC1CCC2OC(=O)Nc1ccccc1 (centres undefined) 11.2 µM [inhibitor, partial curve, poor fit]
CC1(C)C(C=C(Cl)Cl)C1C(=O)Nc1ccc([N+](=O)[O-])cc1 (centres undefined) 39.8 µM [inhibitor, single point]
CC[C@@H](C)[C@@H](C(=O)N1CCN(C(=O)OC(C)(C)C)CC1)n1cc(CCCCNC(=O)OC(C)(C)C)nn1 25.1 µM [inhibitor, single point]
COc1ccc(CCNC(=O)c2ccc(CS(=O)(=O)c3ccc(Cl)cc3)o2)cc1OC 3.16 µM [inhibitor, single point]
CCOC(=O)c1cnc2c(C)cc(C)cc2c1NCCN1CCOCC1 28.2 µM [inhibitor, partial curve, poor fit]
c1ccc(N2CCOCC2)c(Nc2nc3ccccc3n3cnnc23)c1 39.8 µM [inhibitor, single point]
c1cc2ccc3ccc(-n4cnnn4)c4ccc(c1)c2c34 28.2 µM [inhibitor, partial curve, poor fit]
COc1ccc(C)cc1NC(=O)CSc1nc(=O)n(Cc2ccco2)c2c1CCC2 39.8 µM [inhibitor, single point]
CCOC(=O)N1CCN(c2c(N3CC=C(c4ccccc4)CC3)c(=O)c2=O)CC1 17.8 µM [inhibitor, partial curve, poor fit]
CC1=CC(C)(C)Nc2ccc(OC(=O)C(C)N3C(=O)c4ccccc4C3=O)cc21 (centres undefined) 39.8 µM [inhibitor, single point]
N=c1ccn2c(n1)O[C@H]1[C@@H](O)[C@@H](CO)O[C@H]12 5.44 µM [inhibitor, partial curve]
NC(=O)CC(NC(=O)Cc1ccc(Cl)cc1)c1ccc(NC2CC3CCC2C3)c([N+](=O)[O-])c1 (centres undefined) 31.6 µM [inhibitor, partial curve]
CN1C(=O)c2ccccc2Sc2ccc(NC(=O)Cc3ccc(Cl)cc3)cc21 14.1 µM [inhibitor, partial curve, poor fit]
O=C(NCc1ccc(Cl)cc1)c1cc(=O)nc2sc(-c3ccccc3)nn12 15.8 µM [inhibitor, partial curve]
O=C(COc1ccccc1[N+](=O)[O-])Nc1ccc(NC(=O)c2cc3ccccc3o2)cc1 31.6 µM [inhibitor, single point]
O=C(C(=O)c1cc(Br)ccc1O)c1cc(Br)ccc1O 39.8 µM [inhibitor, single point]
CC(C)Cc1ccc(C(C)C(N)=Nc2ccc(O)cc2)cc1 (centres undefined) 11.2 µM [inhibitor, partial curve, poor fit]
COC(=O)c1ccccc1S(=O)(=O)NNC(=O)Nc1ccccc1 8.91 µM [inhibitor, partial curve]
Cc1cccc(C(=O)NCCc2nc3ccccc3n2CCC(C)C)c1 28.2 µM [inhibitor, single point]
C=CCn1c(O)c(C2=c3ccccc3=NC2=O)sc1=Nc1ccc(O)cc1 39.8 µM [inhibitor, single point]
CC(C)(C)c1[nH]cnc1C=c1[nH]c(=O)c(=Cc2ccccc2)[nH]c1=O 88.5 µM [inhibitor, single point]
CCc1cccc(NC(=O)C2CCCN(c3ncnc4c3nc3n4CCCCC3)C2)c1 (centres undefined) 15.8 µM [inhibitor, partial curve]
O=C(Nc1ccc(Cl)c(Cl)c1)Nc1nnc(CC2=CCCCC2)s1 10 µM [inhibitor, partial curve]
COc1ccc(NC(C)=[N+](C)CCNS(=O)(=O)c2ccc(Cl)cc2)cc1Cl 3.55 µM [inhibitor, partial curve, poor fit]
Cc1nn(-c2ccccc2)c2nc(C3CC3)cc(C(=O)Nc3cccc(F)c3)c12 39.8 µM [inhibitor, single point]
COc1cccc(C(=O)Nc2ccc3nc(N4CCOCC4)cc(C)c3c2)c1 14.1 µM [inhibitor, partial curve]
CCOCCCn1c(=N)c(C(=O)NCc2ccc3c(c2)OCO3)cc2c(=O)n3cccc(C)c3nc21 10 µM [inhibitor, partial curve, poor fit]
CC(C)CCn1c(=O)c2ccccc2n2c(CCl)nnc12 37.7 µM [inhibitor, single point]
CC(C)C[C@H]1CN([C@@H](Cc2ccc(O)cc2)CN2CCC[C@@H]2CN2C(=O)C(=O)NC[C@@H]2Cc2ccccc2)C(=O)C(=O)N1CC1CCCCC1 31.6 µM [inhibitor, single point]
COc1ccc(-c2ccc3[nH]c4c(c3c2)CCN2C(=O)[C@@H]([C@H](C)O)[C@@H](N(C)C(=O)Nc3cc(Cl)cc(Cl)c3)C[C@@H]42)cc1 35.5 µM [inhibitor, single point]
CCCCN(C=O)c1c(CC)nc2c(OCCC3CCCCC3)cccn12 39.8 µM [inhibitor, single point]
Cc1ccc(-n2ncc3c(NCCCN(C)C)ncnc32)cc1Cl 28.2 µM [inhibitor, single point]
CC1(C)Cc2ccccc2C2=NNC(=O)C2=N1 28.2 µM [inhibitor, partial curve, poor fit]
COc1ccc(CNC(=O)CCCn2ccc3cc(S(=O)(=O)N4CCCC4)ccc32)cc1 39.8 µM [inhibitor, partial curve, poor fit]
CCc1nc2c(c(=O)c3ccccc3n2C)c(=O)n1C1CCCCCC1 28.2 µM [inhibitor, single point]
Cc1ccc(-c2noc(C3CCCN(C(=O)c4ccc(Cl)cc4)C3)n2)o1 (centres undefined) 39.8 µM [inhibitor, single point]
COc1ccc(-c2noc(CSc3nnc(Cc4ccccc4)n3-c3ccc(F)cc3)n2)cc1 31.6 µM [inhibitor, single point]
COc1cc(/C=C/c2ccc3cccc(OC)c3n2)c(OC(C)=O)c([N+](=O)[O-])c1 28.2 µM [inhibitor, single point]
CCOC(=O)c1c(NC(=O)c2ccc(-n3cnnn3)cc2)sc2c1CCCC2 39.8 µM [inhibitor, single point]
COc1ccc(/C=c2\s/c(=C/C(=O)c3ccc(C)cc3)[nH]c2=O)cc1OC 33.6 µM [inhibitor, partial curve, poor fit]
CCOc1cccc2sc(N(CCCN(C)C)C(=O)c3ccc(S(=O)(=O)N(C)Cc4ccccc4)cc3)nc12 31.6 µM [inhibitor, single point]
COc1ccc(S(=O)(=O)/N=C2\C=C(NS(=O)(=O)c3ccccc3)C(=O)c3ccccc32)cc1 35.5 µM [inhibitor, single point]
CCOc1ccc(C(=O)Nc2ccc3nc(N(CC)CC)cc(C)c3c2)cc1 28.2 µM [inhibitor, partial curve]

Potency, active:
Cc1[nH]c(=O)c(C(=O)/C=C/c2ccccc2F)c2c1CCCC2 8.91 µM

Activity change, negative = inhibition, inactive:
C=CCNC1=C(Cl)C(=O)c2ccccc2C1=O -35.7%
Cc1cc(/C=c2\sc3nc4ccccc4n3c2=O)c(C)n1-c1ccc(C(=O)O)cc1 6.15%
COC(=O)c1sccc1S(=O)(=O)N1CCN(c2cccc(C)c2)C(C)C1 (centres undefined) -3.65%
CC(C)(C)OC(=O)C[C@H]1C/C=C\C[C@H](CC(=O)NCCO)C(=O)NC[C@H](c2ccccc2)OC1=O -0.129%
CCCN(Cc1nnc(-c2cccs2)o1)C(=O)CN1C(=O)NC2(CCCCC2)C1=O -4%
O=C(CCC(=O)c1ccc(F)cc1)NCc1ccccc1C(F)(F)F 1.16%
COc1ccc(/C=C/C(=O)N2c3ccccc3Sc3ccc(C(F)(F)F)cc32)cc1 -16.8%
OC(COc1ccc(OCC(O)CN2CCN(Cc3ccccc3)CC2)cc1)CN1CCN(Cc2ccccc2)CC1 (centres undefined) -33.5%
CCOc1ccc(CNC(=O)c2ccc(CSc3nc4ccncc4n3Cc3ccc(F)cc3)cc2)cc1 -21.4%
Cc1ccccc1Nc1nc(N2CCOCC2)nc(N2CCOCC2)n1 -21.2%
COc1cccc(-c2cc(C(=O)N3CCN(S(=O)(=O)c4ccccc4)CC3)[nH]n2)c1 -3.71%
O=C(CC1SC(=Nc2ccccc2)N(CCc2ccccn2)C1=O)Nc1ccc(F)cc1 (centres undefined) -5.32%
Cc1cc(C)nc(SCC(=O)c2ccc(O)c(O)c2)n1 7.72%
COc1ccc2oc(-c3cccc(NC(=O)c4cc([N+](=O)[O-])ccc4N4CCOCC4)c3)nc2c1 9.05%
COc1cc(C(=O)N2CCCCC2c2cc(C(=O)Nc3ccccc3)no2)cc(OC)c1C (centres undefined) -25.7%
CCOC(=O)c1sc2nc(C)nc(NCc3cccnc3)c2c1C 6.61%
COc1ccc(CCNC(=O)c2ccc3c(c2)N=C(C)c2ccccc2S3)cc1OC -35.6%
CCOC(=O)c1c(-c2ccc(C)cc2)csc1NC(=O)c1cc(-c2ccc(OC)cc2)on1 3.06%
COc1ccccc1CCNC(=O)CSc1nc(-c2ccco2)cc(C(F)(F)F)n1 -8.56%
O=C(NCCN1CCOCC1)c1cnn2c(-c3ccccc3)cc(-c3ccccc3)nc12 -15.5%
